This data set deals with Sindbis virus TE/5'2J-GFP. Briefly: percent infected (GFP+ in RFP+ ISG-expressing cells); higher = more infection (less antiviral activity). How it is done:
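Confirmatory testing of 87 ISGs. Triplicate wells of BHK/HA-Zeo (control) or BHK/NZAP-Zeo (ZAP) cells were transduced with lentiviruses co-expressing a human ISG plus TagRFP, then infected 48 h later with SINV TE/5'2J-GFP (moi 5). The % GFP+ cells among RFP+ cells was measured by flow cytometry at 8 h post infection. Fluc lentivirus served as control. Three independent experiments.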

Where [1] appears, read: experiment: confirmatory screen 1, BHK/HA-Zeo (control).
Setting [2] is: experiment: confirmatory screen 1, BHK/NZAP-Zeo (ZAP).
[3] abbreviates: experiment: confirmatory screen 2, BHK/HA-Zeo (control).
[4] abbreviates: experiment: confirmatory screen 2, BHK/NZAP-Zeo (ZAP).
Setting [5] is: experiment: confirmatory screen 3, BHK/HA-Zeo (control).
Setting [6] is: experiment: confirmatory screen 3, BHK/NZAP-Zeo (ZAP).

± gives the standard deviation of the averaged measurements.
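Further: Interferon-defective BHK-21 derivatives, ZAP line overexpressing the rat ZAP N-terminal zinc finger domain fused to Zeocin resistance, GFP scored within live singlet TagRFP+ cells.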

With STAT3 (no sequence given), the percent infected under setting [1] turned out to be 88.5 ± 5.8%; the percent infected under setting [2] was 69 ± 2.6%; the percent infected under setting [3] was 94.9 ± 0.33%; the percent infected under setting [4] was 94.94 ± 0.58%; the percent infected under setting [5] amounted to 95.31 ± 0.41%; the percent infected under setting [6] came out at 94.87 ± 0.3%.
On to “MAAGGPGAGSAAPVSSTSSLPLAALNMRVRRRLSLFLNVRTQVAADWTALAEEMDFEYLEIRQLETQADPTGRLLDAWQGRPGASVGRLLELLTKLGRDDVLLELGPSIEEDCQKYILKQQQEEAEKPLQVAAVDSSVPRTAELAGITTLDDPLGHMPERFDAFICYCPSDIQFVQEMIRQLEQTNYRLKLCVSDRDVLPGTCVWSIASELIEKRCRRMVVVVSDDYLQSKECDFQTKFALSLSPGAHQKRLIPIKYKAMKKEFPSILRFITVCDYTNPCTKSWFWTRLAKALSLP [MYD88]”, for which the percent infected was 76.9 ± 6.5% under setting [1]; 31.5 ± 3.7% under setting [2]; 91.74 ± 0.51% under setting [3]; 90.709 ± 0.089% under setting [4]; 84.9 ± 1.7% under setting [5]; 82.1 ± 1.9% under setting [6].

The values above are taken from the supplement of paper PMC3353916.
